Test results as given in the supplement of paper PMC8728848.
The list shows a part of the results.

What was measured:
Assay in all cases: glycan array binding signal (z-score within array); higher = stronger binding
Details in all cases: glycan notation: IUPAC condensed, linker removed
[1] = target: GlcNAc(a1-3)Gal(b1-4)GlcNAc
In short: (§1)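 Columns mapping to the same glycan were averaged after glycan names were converted to IUPAC-condensed notation. The data come from 3228 arrays in the Consortium for Functional Glycomics database, limited to those with an available protein sequence. Binding is reported as a within-array Z-score averaged across arrays of one protein sequence and across linkers.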

[2] = target: GlcNAc(a1-4)Gal(b1-3)GlcNAc
In short: as §1

[3] = target: GlcNAc(a1-4)Gal(b1-4)GalNAc
In short: as §1

[4] = target: GlcNAc(a1-4)Gal(b1-4)GlcNAc
In short: as §1

[5] = target: GlcNAc(a1-4)Gal(b1-4)GlcNAc(b1-3)Gal(b1-4)Glc
In short: as §1

[6] = target: GlcNAc(a1-4)Gal(b1-4)GlcNAc(b1-3)Gal(b1-4)GlcNAc
In short: as §1

[7] = target: GlcNAc(a1-4)Gal(b1-4)GlcNAc(b1-3)Gal(b1-4)GlcNAc(b1-3)Gal(b1-4)GlcNAc
In short: as §1

[8] = target: GlcNAc(a1-4)Gal(b1-4)GlcNAc(b1-3)Gal(b1-4)[Fuc(a1-3)]GlcNAc(b1-3)Gal(b1-4)[Fuc(a1-3)]GlcNAc
In short: as §1

[9] = target: GlcNAc(a1-6)Gal(b1-4)GlcNAc
In short: as §1

[10] = target: GlcNAc(b1-2)Gal(b1-3)GalNAc
In short: as §1

[11] = target: GlcNAc(b1-2)Man(a1-3)[GlcNAc(b1-2)Man(a1-6)]Man(b1-4)GlcNAc(b1-4)GlcNAc
In short: as §1

[12] = target: GlcNAc(b1-2)Man(a1-3)[GlcNAc(b1-2)Man(a1-6)]Man(b1-4)GlcNAc(b1-4)[Fuc(a1-6)]GlcNAc
In short: as §1

[13] = target: GlcNAc(b1-2)Man(a1-3)[GlcNAc(b1-4)][GlcNAc(b1-2)Man(a1-6)]Man(b1-4)GlcNAc(b1-4)GlcNAc
In short: as §1

[14] = target: GlcNAc(b1-2)Man(a1-3)[GlcNAc(b1-4)][GlcNAc(b1-2)Man(a1-6)]Man(b1-4)GlcNAc(b1-4)[Fuc(a1-6)]GlcNAc
In short: as §1

[15] = target: GlcNAc(b1-2)[GlcNAc(b1-4)]Man(a1-3)[GlcNAc(b1-2)Man(a1-6)]Man(b1-4)GlcNAc(b1-4)GlcNAc
In short: as §1

[16] = target: GlcNAc(b1-2)[GlcNAc(b1-4)]Man(a1-3)[GlcNAc(b1-4)][GlcNAc(b1-2)Man(a1-6)]Man(b1-4)GlcNAc(b1-4)GlcNAc
In short: as §1

[17] = target: GlcNAc(b1-2)[GlcNAc(b1-4)]Man(a1-3)[GlcNAc(b1-4)][GlcNAc(b1-2)[GlcNAc(b1-6)]Man(a1-6)]Man(b1-4)GlcNAc(b1-4)GlcNAc
In short: as §1

[18] = target: GlcNAc(b1-2)[GlcNAc(b1-4)]Man(a1-3)[GlcNAc(b1-4)][GlcNAc(b1-2)[GlcNAc(b1-6)]Man(a1-6)]Man(b1-4)GlcNAc(b1-4)[Fuc(a1-6)]GlcNAc
In short: as §1

[19] = target: GlcNAc(b1-2)[GlcNAc(b1-6)]Man(a1-6)[GlcNAc(b1-2)Man(a1-3)]Man(b1-4)GlcNAc(b1-4)GlcNAc
In short: as §1

[20] = target: GlcNAc(b1-2)[GlcNAc(b1-6)]Man(a1-6)[GlcNAc(b1-2)Man(a1-3)]Man(b1-4)GlcNAc(b1-4)[Fuc(a1-6)]GlcNAc
In short: as §1

[21] = target: GlcNAc(b1-2)[GlcNAc(b1-6)]Man(a1-6)[GlcNAc(b1-4)][GlcNAc(b1-2)Man(a1-3)]Man(b1-4)GlcNAc(b1-4)GlcNAc
In short: as §1

GlcNAc(b1-3)Fuc = target: GlcNAc(b1-3)Fuc
In short: as §1

GlcNAc(b1-3)Gal = target: GlcNAc(b1-3)Gal
In short: as §1

[22] = target: GlcNAc(b1-3)Gal(b1-3)GalNAc
In short: as §1

GlcNAc(b1-3)Gal(b1-4)Glc = target: GlcNAc(b1-3)Gal(b1-4)Glc
In short: as §1

[23] = target: GlcNAc(b1-3)Gal(b1-4)GlcNAc
In short: as §1

[24] = target: GlcNAc(b1-3)Gal(b1-4)GlcNAc(b1-2)Man(a1-3)[GlcNAc(b1-3)Gal(b1-4)GlcNAc(b1-2)Man(a1-6)]Man(b1-4)GlcNAc(b1-4)GlcNAc
In short: as §1

[25] = target: GlcNAc(b1-3)Gal(b1-4)GlcNAc(b1-2)Man(a1-3)[GlcNAc(b1-3)Gal(b1-4)GlcNAc(b1-2)Man(a1-6)]Man(b1-4)GlcNAc(b1-4)[Fuc(a1-6)]GlcNAc
In short: as §1

[26] = target: GlcNAc(b1-3)Gal(b1-4)GlcNAc(b1-2)[GlcNAc(b1-3)Gal(b1-4)GlcNAc(b1-6)]Man(a1-6)[GlcNAc(b1-3)Gal(b1-4)GlcNAc(b1-2)Man(a1-3)]Man(b1-4)GlcNAc(b1-4)GlcNAc
In short: as §1

[27] = target: GlcNAc(b1-3)Gal(b1-4)GlcNAc(b1-3)Gal(b1-4)GlcNAc
In short: as §1

[28] = target: GlcNAc(b1-3)Gal(b1-4)GlcNAc(b1-3)Gal(b1-4)GlcNAc(b1-2)Man(a1-3)[GlcNAc(b1-3)Gal(b1-4)GlcNAc(b1-3)Gal(b1-4)GlcNAc(b1-2)Man(a1-6)]Man(b1-4)GlcNAc(b1-4)GlcNAc
In short: as §1

[29] = target: GlcNAc(b1-3)Gal(b1-4)GlcNAc(b1-3)Gal(b1-4)GlcNAc(b1-2)Man(a1-3)[GlcNAc(b1-3)Gal(b1-4)GlcNAc(b1-3)Gal(b1-4)GlcNAc(b1-2)Man(a1-6)]Man(b1-4)GlcNAc(b1-4)[Fuc(a1-6)]GlcNAc
In short: as §1

[30] = target: GlcNAc(b1-3)Gal(b1-4)GlcNAc(b1-3)Gal(b1-4)GlcNAc(b1-2)[GlcNAc(b1-3)Gal(b1-4)GlcNAc(b1-3)Gal(b1-4)GlcNAc(b1-6)]Man(a1-6)[GlcNAc(b1-3)Gal(b1-4)GlcNAc(b1-3)Gal(b1-4)GlcNAc(b1-2)Man(a1-3)]Man(b1-4)GlcNAc(b1-4)[Fuc(a1-6)]GlcNAc
In short: as §1

[31] = target: GlcNAc(b1-3)Gal(b1-4)GlcNAc(b1-3)Gal(b1-4)GlcNAc(b1-3)Gal(b1-4)GlcNAc(b1-2)Man(a1-3)[GlcNAc(b1-3)Gal(b1-4)GlcNAc(b1-3)Gal(b1-4)GlcNAc(b1-3)Gal(b1-4)GlcNAc(b1-2)Man(a1-6)]Man(b1-4)GlcNAc(b1-4)GlcNAc
In short: as §1

[32] = target: GlcNAc(b1-3)Gal(b1-4)GlcNAc(b1-3)Gal(b1-4)GlcNAc(b1-3)Gal(b1-4)GlcNAc(b1-2)Man(a1-3)[GlcNAc(b1-3)Gal(b1-4)GlcNAc(b1-3)Gal(b1-4)GlcNAc(b1-3)Gal(b1-4)GlcNAc(b1-2)Man(a1-6)]Man(b1-4)GlcNAc(b1-4)[Fuc(a1-6)]GlcNAc
In short: as §1

[33] = target: GlcNAc(b1-3)Gal(b1-4)GlcNAc(b1-3)Gal(b1-4)GlcNAc(b1-3)Gal(b1-4)GlcNAc(b1-2)[GlcNAc(b1-3)Gal(b1-4)GlcNAc(b1-3)Gal(b1-4)GlcNAc(b1-3)Gal(b1-4)GlcNAc(b1-6)]Man(a1-6)[GlcNAc(b1-3)Gal(b1-4)GlcNAc(b1-3)Gal(b1-4)GlcNAc(b1-3)Gal(b1-4)GlcNAc(b1-2)Man(a1-3)]Man(b1-4)GlcNAc(b1-4)[Fuc(a1-6)]GlcNAc
In short: as §1

[34] = target: GlcNAc(b1-3)Gal(b1-4)GlcNAc(b1-3)Gal(b1-4)GlcNAc(b1-3)Gal(b1-4)GlcNAc(b1-3)Gal(b1-4)GlcNAc(b1-2)Man(a1-3)[GlcNAc(b1-3)Gal(b1-4)GlcNAc(b1-3)Gal(b1-4)GlcNAc(b1-3)Gal(b1-4)GlcNAc(b1-3)Gal(b1-4)GlcNAc(b1-2)Man(a1-6)]Man(b1-4)GlcNAc(b1-4)GlcNAc
In short: as §1

[35] = target: GlcNAc(b1-3)Gal(b1-4)GlcNAc(b1-3)Gal(b1-4)GlcNAc(b1-3)Gal(b1-4)GlcNAc(b1-3)Gal(b1-4)GlcNAc(b1-2)Man(a1-3)[GlcNAc(b1-3)Gal(b1-4)GlcNAc(b1-3)Gal(b1-4)GlcNAc(b1-3)Gal(b1-4)GlcNAc(b1-3)Gal(b1-4)GlcNAc(b1-2)Man(a1-6)]Man(b1-4)GlcNAc(b1-4)[Fuc(a1-6)]GlcNAc
In short: as §1

B1: Apa (Mycobacterium tuberculosis), Rv1860 (protein)
chain: MHQVDPNLTRRKGRLAALAIAAMASASLVTVAVPATANADPEPAPPVPTTAASPPSTAAAPPAPATPVAPPPPAAANTPNAQPGDPNAAPPPADPNAPPPPVIAPNAPQPVRIDNPVGGFSFALPAGWVESDAAHFDYGSALLSKTTGDPPFPGQPPPVANDTRIVLGRLDQKLYASAEATDSKAAARLGSDMGEFYMPYPGTRINQETVSLDANGVSGSASYYEVKFSDPSKPNGQIWTGVIGSPAANAPDAGPPQRWFVVWLGTANNPVDKGAAKALAESIRPLVAPPPAPAPAPAEPAPAPAPAGEVAPTPTTPTPQRTLPA
glycan array binding signal (z-score) [1]: -0.768 | glycan array binding signal (z-score) [2]: -0.652 | glycan array binding signal (z-score) [3]: -0.417 | glycan array binding signal (z-score) [4]: -0.514 | glycan array binding signal (z-score) [5]: -0.68 | glycan array binding signal (z-score) [6]: -0.339 | glycan array binding signal (z-score) [7]: -0.361 | glycan array binding signal (z-score) [8]: 0.269 | glycan array binding signal (z-score) [9]: -0.564 | glycan array binding signal (z-score) [10]: -0.424 | glycan array binding signal (z-score) [11]: -0.174 | glycan array binding signal (z-score) [12]: 0.431 | glycan array binding signal (z-score) [13]: -0.088 | glycan array binding signal (z-score) [14]: -0.607 | glycan array binding signal (z-score) [15]: -0.083 | glycan array binding signal (z-score) [16]: -0.159 | glycan array binding signal (z-score) [17]: -0.32 | glycan array binding signal (z-score) [18]: -0.482 | glycan array binding signal (z-score) [19]: -0.129 | glycan array binding signal (z-score) [20]: 0.365 | glycan array binding signal (z-score) [21]: -0.589 | glycan array binding signal (z-score) (GlcNAc(b1-3)Fuc): 0.318 | glycan array binding signal (z-score) (GlcNAc(b1-3)Gal): 0.516 | glycan array binding signal (z-score) [22]: -0.548 | glycan array binding signal (z-score) (GlcNAc(b1-3)Gal(b1-4)Glc): -0.125 | glycan array binding signal (z-score) [23]: -0.272 | glycan array binding signal (z-score) [24]: -0.21 | glycan array binding signal (z-score) [25]: -0.101 | glycan array binding signal (z-score) [26]: 0.203 | glycan array binding signal (z-score) [27]: -0.583 | glycan array binding signal (z-score) [28]: 0.234 | glycan array binding signal (z-score) [29]: -0.096 | glycan array binding signal (z-score) [30]: 0.517 | glycan array binding signal (z-score) [31]: 0.106 | glycan array binding signal (z-score) [32]: 0.005 | glycan array binding signal (z-score) [33]: 0.097 | glycan array binding signal (z-score) [34]: 0.089 | glycan array binding signal (z-score) [35]: -0.366
